The values below come from the supplement of paper PMC8007513.

The experiment concerns Trichoderma virens ATCC 9645. Description: growth yield (OD600) relative to untreated control; higher = less growth inhibition. Particulars: compound concentration: 100 uM. Put shortly: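 Spores of Trichoderma virens ATCC 9645, taken from potato dextrose agar plates grown for 7 days, were suspended at 15,000 spores ml^−1 in potato dextrose broth. In 96-well plates, 100 μl aliquots held library compounds at 100 μM final, either alone or together with a biocide at 200 ng ml^−1, and were grown at 30 °C. A BioTek EL800 read OD600 at 40 h and 72 h. Growth values are given relative to the control lacking both agents and are means of duplicate screens.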

Where a name gives a salt, the structure may show the parent alone. ± gives the standard error. Among all 1,300 compounds or so, about 75 (6%) showed an effect of 50% or more. The list shows a part of the results.

For `CC(=O)OCC(=O)[C@@]12N=C(C)O[C@@H]1C[C@H]1[C@@H]3CCC4=CC(=O)C=C[C@]4(C)[C@H]3[C@@H](O)C[C@@]12C` [Deflazacort], the growth yield is 100.07 ± 1.4e-14% (40 h) and 97.7 ± 1.3% (72 h).

Take `OCc1cc(C(O)CNCCCCCCOCCCCc2ccccc2)ccc1O` (stereo unspecified) [Salmeterol]: the growth yield reads like this: (40 h) 63.2 ± 2.9%; (72 h) 96.6 ± 8.1%.

Consider `Cc1nc2n(c(=O)c1CCN1CCC(c3noc4cc(F)ccc34)CC1)CCCC2` [Risperidone], for which the growth yield came to 110 ± 5.2% (40 h) and 104.9 ± 0.84% (72 h).

Regarding `CNCCC(Oc1ccc(C(F)(F)F)cc1)c1ccccc1` (stereo unspecified) [Fluoxetine hydrochloride], the growth yield is, setting by setting: (40 h) 107 ± 4.8%; (72 h) 110 ± 4.1%.

Turning to `C[C@@H](CN1CC(=O)NC(=O)C1)N1CC(=O)NC(=O)C1` [Dexrazoxane hydrochloride], the growth yield reads like this: (40 h) 101 ± 2.1%; (72 h) 102.8 ± 0.21%.

On to `CC(=O)Nc1ccc(CC(=O)O)cc1` [Actarit], for which the growth yield was 106 ± 5.4% (40 h) and 102 ± 3.4% (72 h).

In turn, `CCN1CC(CCN2CCOCC2)C(c2ccccc2)(c2ccccc2)C1=O` (stereo unspecified) [Doxapram hydrochloride] gave a growth yield (40 h) of 103 ± 3% and a growth yield (72 h) of 102 ± 3.6%.

For the compound `CCCCNC(=O)NS(=O)(=O)c1ccc(C)cc1` [Tolbutamide], the growth yield came out at 106.4 ± 0.32% (40 h) and 104.2 ± 0.84% (72 h).

`O=C(O)c1cc(-c2ccc(F)cc2F)ccc1O` [Diflunisal] had a growth yield (40 h) of 78.8 ± 1.9% and a growth yield (72 h) of 77.189 ± 1e-14%.

With `CCOC(=O)OC(C)OC1=C(C(=O)Nc2ccccn2)N(C)S(=O)(=O)c2ccccc21` (stereo unspecified) [Ampiroxicam], the growth yield by setting is: (40 h) 97.4 ± 2.1%; (72 h) 98.48 ± 0.32%.

Consider `CC(=O)[C@H]1CC[C@H]2[C@@H]3C[C@H](C)C4=CC(=O)CC[C@]4(C)[C@H]3[C@@H](O)C[C@]12C` [Medrysone], for which the growth yield worked out at 92.9 ± 6.2% (40 h) and 91.8 ± 5.6% (72 h).

As to `O=S(=O)(O)CCS` [Mesna], the growth yield reads like this: (40 h) 100%; (72 h) 99.21 ± 0.42%.

On to `CCn1cc(C(=O)O)c(=O)c2cnc(N3CCCC3)nc21` [Piromidic acid], for which the growth yield (40 h) was 90.5 ± 5.7% and the growth yield (72 h) is 92.1 ± 4%.

For the compound `CC(C)(C)NC[C@H](O)c1ccc(O)c(CO)c1` [Levalbuterol hydrochloride], the growth yield reads like this: (40 h) 100 ± 1.6%; (72 h) 97.64 ± 0.73%.

`COc1ccc(-c2cc(=O)c3c(O)cc(O[C@@H]4O[C@H](CO[C@@H]5O[C@@H](C)[C@H](O)[C@@H](O)[C@H]5O)[C@@H](O)[C@H](O)[C@H]4O)cc3o2)cc1O` [Diosmin]: the growth yield (40 h) was determined as 99.91 ± 0.16% and the growth yield (72 h) amounted to 103.8 ± 0.63%.

Consider `CCCCCCCN(CC)CCCC(O)c1ccc(NS(C)(=O)=O)cc1` (stereo unspecified) [Ibutilide fumarate], for which the growth yield runs as follows: (40 h) 100 ± 2.9%; (72 h) 101 ± 2.5%.

As to `c1ccc2[nH]c(-c3cscn3)nc2c1` [Tiabendazole], the growth yield (40 h) was 1.43 ± 1.4% and the growth yield (72 h) amounted to 1.26 ± 1.3%.

Turning to `CC1CS(=O)(=O)CCN1/N=C/c1ccc([N+](=O)[O-])o1` (stereo unspecified) [Nifurtimox], the growth yield runs as follows: (40 h) 87.5 ± 1.4%; (72 h) 84.22 ± 0.52%.

As for `CN1CC2c3ccccc3Oc3ccc(Cl)cc3C2C1` (stereo unspecified) [Asenapine maleate], the growth yield runs as follows: (40 h) 100 ± 1.3%; (72 h) 106 ± 1.3%.

As to `COc1cc(C(=O)NC2CCCNC2)cc(OC)c1OC` (stereo unspecified) [Troxipide], the growth yield was 111 ± 4.5% (40 h) and 104 ± 3.8% (72 h).

Take `C[C@]12CC[C@@H]3c4ccc(O)cc4CC[C@H]3[C@@H]1CCC2=O` [Estrone]: the growth yield was 86.1 ± 1.9% (40 h) and 86.9 ± 1.8% (72 h).

Turning to `CN(C)[C@@H]1C(O)=C(C(N)=O)C(=O)[C@@]2(O)C(O)=C3C(=O)c4c(O)ccc(Cl)c4[C@@](C)(O)[C@H]3C[C@@H]12` [Chlortetracycline hydrochloride], the growth yield (40 h) is 90.54 ± 0.32% and the growth yield (72 h) was determined as 90.93 ± 0.32%.

With `CC(=O)N(CC(C)C(=O)O)c1c(I)cc(I)c(N)c1I` (stereo unspecified) [Iocetamic acid], the growth yield runs as follows: (40 h) 107 ± 1.6%; (72 h) 104 ± 1.1%.

Turning to `COc1cnc(NS(=O)(=O)c2ccc(N)cc2)nc1` [Sulfameter], the growth yield is, setting by setting: (40 h) 104 ± 1.3%; (72 h) 100 ± 0.84%.

For the compound `O=C(O)CCC(=O)Nc1ccc(S(=O)(=O)Nc2nccs2)cc1` [Succinylsulfathiazole], the growth yield was 94.7 ± 3.5% (40 h) and 93.9 ± 2.6% (72 h).

Consider `Cc1cccc(CN2CCN(C(c3ccccc3)c3ccc(Cl)cc3)CC2)c1` (stereo unspecified) [Meclozine dihydrochloride], for which the growth yield by setting is: (40 h) 68.3%; (72 h) 115%.

With `COc1ccccc1O` [Guaiacol], the growth yield runs as follows: (40 h) 103.9 ± 0.95%; (72 h) 102.7 ± 0.32%.

Regarding `CNCCC(Oc1ccccc1OC)c1ccccc1` (stereo unspecified) [Nisoxetine hydrochloride], the growth yield reads like this: (40 h) 99.6 ± 2.4%; (72 h) 97 ± 3.5%.

On to `CCCCC(C)(O)C/C=C/[C@H]1[C@H](O)CC(=O)[C@@H]1CCCCCCC(=O)OC` (mixture of isomers) [Misoprostol], for which the growth yield came out at 105 ± 1.3% (40 h) and 109 ± 4.1% (72 h).

On to `CCOC(=O)C1=C[C@]2(CC)CCCN3CCc4c(n1c1ccccc41)[C@@H]32` [Vinpocetine], for which the growth yield by setting is: (40 h) 99.8 ± 1.9%; (72 h) 99.5 ± 1.6%.

As to `OCCOCCN1CCN(C(c2ccccc2)c2ccc(Cl)cc2)CC1` (stereo unspecified) [Hydroxyzine dihydrochloride], the growth yield reads like this: (40 h) 97.4 ± 1.1%; (72 h) 102 ± 2.1%.

Turning to `C=CC1=C(C(=O)O)N2C(=O)[C@@H](NC(=O)/C(=N\OCC(=O)O)c3csc(N)n3)[C@H]2SC1` [Cefixime], the growth yield is, setting by setting: (40 h) 103 ± 8.4%; (72 h) 104 ± 7.9%.

Turning to `Cc1cc(-n2c(=O)[nH]c(=O)n(C)c2=O)ccc1Oc1ccc(SC(F)(F)F)cc1` [Toltrazuril], the growth yield reads like this: (40 h) 112 ± 2.2%; (72 h) 104 ± 2.5%.
